Strand notation (5' to 3'): a small letter for the sugar, then the base; units joined by * are phosphorothioate-linked, units joined directly phosphodiester-linked; [ ] holds rarer units or linkages, { } end groups; capitals alone tell only the bases. d = 2'-deoxy (DNA)
Tested on: p53
Assay: p53-responsive BP100-luciferase reporter in JAR cells
Assay type: cell-based, human

| Compound | activation of the p53 reporter (JAR BP100-luc, 48 h, AS5 200 nM, CPT alone, AS5 alone or co-incubation) | induction of p53 activity among the initial antisense oligonucleotides tested |
| --- | --- | --- |
| CC[C@@]1(O)C(=O)OCc2c1cc1n(c2=O)Cc2cc3ccccc3nc2-1 [CPT, camptothecin] | 3-4 fold | – |
| AS7: antisense oligonucleotide SEQ ID NO:29, 5′-TGAAACTGAATCCTGATCCA-3′ (DNA dT*dG*dA*dA*dA*dC*dT*dG*dA*dA*dT*dC*dC*dT*dG*dA*dT*dC*dC*dA) | – | most effective |
